This is one part of the list. These are enrichments in a pooled selection; single values are uncertain.
These sequences were tested against T1, Drosophila AGO2 (FLAG-tagged, S2-R+ lysate) (UniProt Q9VUQ5) (assay: AGO2 loading enrichment factor (IP read count / input read count, not library-size normalised) (ratio); higher = more efficient loading into AGO2). Details: randomized region: 5' 5N of miR-317 loop.
T1 sequence: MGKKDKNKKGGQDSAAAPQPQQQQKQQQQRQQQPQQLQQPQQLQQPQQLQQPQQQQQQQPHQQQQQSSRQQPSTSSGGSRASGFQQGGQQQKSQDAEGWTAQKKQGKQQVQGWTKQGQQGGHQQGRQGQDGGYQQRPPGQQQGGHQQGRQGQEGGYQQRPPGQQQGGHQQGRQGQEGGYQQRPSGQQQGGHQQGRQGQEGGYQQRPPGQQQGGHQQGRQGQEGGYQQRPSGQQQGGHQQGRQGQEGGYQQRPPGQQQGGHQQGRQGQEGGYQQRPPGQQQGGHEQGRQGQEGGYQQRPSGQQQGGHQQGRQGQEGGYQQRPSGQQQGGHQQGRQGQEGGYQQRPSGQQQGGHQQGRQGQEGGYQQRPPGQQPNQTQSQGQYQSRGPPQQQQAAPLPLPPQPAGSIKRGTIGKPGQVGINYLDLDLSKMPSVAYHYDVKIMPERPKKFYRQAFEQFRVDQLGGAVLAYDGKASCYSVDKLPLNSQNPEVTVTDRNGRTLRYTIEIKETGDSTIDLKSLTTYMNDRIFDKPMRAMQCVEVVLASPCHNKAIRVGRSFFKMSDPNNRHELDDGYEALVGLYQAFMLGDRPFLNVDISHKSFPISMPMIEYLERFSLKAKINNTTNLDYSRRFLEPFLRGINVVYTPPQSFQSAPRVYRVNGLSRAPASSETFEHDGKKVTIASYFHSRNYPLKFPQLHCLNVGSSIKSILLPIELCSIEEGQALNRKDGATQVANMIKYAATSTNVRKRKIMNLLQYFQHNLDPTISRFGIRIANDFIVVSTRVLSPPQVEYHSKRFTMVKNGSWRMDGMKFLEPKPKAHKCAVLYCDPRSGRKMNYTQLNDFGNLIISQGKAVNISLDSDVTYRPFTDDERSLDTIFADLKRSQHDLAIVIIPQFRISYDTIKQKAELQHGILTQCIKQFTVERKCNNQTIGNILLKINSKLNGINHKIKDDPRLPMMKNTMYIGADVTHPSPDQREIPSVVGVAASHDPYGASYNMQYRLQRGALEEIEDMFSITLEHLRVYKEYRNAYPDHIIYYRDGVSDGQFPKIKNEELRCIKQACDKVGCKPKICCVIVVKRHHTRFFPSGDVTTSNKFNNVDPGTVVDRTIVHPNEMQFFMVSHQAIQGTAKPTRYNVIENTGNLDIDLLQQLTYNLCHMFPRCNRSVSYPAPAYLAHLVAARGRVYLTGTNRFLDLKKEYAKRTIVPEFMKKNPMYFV
Experimental: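 HISSA: 5'-phosphorylated, 32P-labelled 20-nt ssRNA oligos (miR-317 loop, first 5 nt randomized, constant 3' part TGAAATGCAAGCAAG as printed in methods; DNA letters for RNA) incubated 1 h at 25°C in lysate of S2-R+ cells expressing FLAG-AGO2. FLAG-AGO2 was immunopurified and bound oligos were sequenced after splinted ligation. Enrichment factor = IP read count / input read count (raw counts, not library-size normalised); single library, no replicates.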
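Also: Per-sequence enrichment computed with FASTAptamer, counting only reads that carry the expected constant 3′ region.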

Sequence	AGO2 loading enrichment factor
ATACCTGAAATGCAAGCAAG	0.419
ACCTTTGAAATGCAAGCAAG	0.319
TACAGTGAAATGCAAGCAAG	0.356
GCCCGTGAAATGCAAGCAAG	0.219
AGTATTGAAATGCAAGCAAG	0.369
GCCGCTGAAATGCAAGCAAG	0.0671
GCCCCTGAAATGCAAGCAAG	0.199
AATCGTGAAATGCAAGCAAG	0.513
TAACTTGAAATGCAAGCAAG	0.0752
CTGCGTGAAATGCAAGCAAG	0.396
TGCCCTGAAATGCAAGCAAG	0.325
GTGCGTGAAATGCAAGCAAG	0.377
AAACTTGAAATGCAAGCAAG	0.0484
ATCTCTGAAATGCAAGCAAG	0.22
ACCGGTGAAATGCAAGCAAG	0.742
TCTCATGAAATGCAAGCAAG	0.435
ATCAGTGAAATGCAAGCAAG	0.44
GTTATTGAAATGCAAGCAAG	0.424
GCCGTTGAAATGCAAGCAAG	0.332
CCCTCTGAAATGCAAGCAAG	0.302
TTCGTTGAAATGCAAGCAAG	0.557
TATACTGAAATGCAAGCAAG	0.446
TCCAATGAAATGCAAGCAAG	0.376
CCAGCTGAAATGCAAGCAAG	0.117
TGTGATGAAATGCAAGCAAG	0.337

Sequence	AGO2 loading enrichment factor
CGCACTGAAATGCAAGCAAG	0.252
AGGGCTGAAATGCAAGCAAG	0.284
TTGCGTGAAATGCAAGCAAG	0.0965
GAACTTGAAATGCAAGCAAG	0.103
ATTTTTGAAATGCAAGCAAG	0.222
GCGTATGAAATGCAAGCAAG	0.296
CTTATTGAAATGCAAGCAAG	0.31
CAGTCTGAAATGCAAGCAAG	0.282
AAGAATGAAATGCAAGCAAG	0.381
TTACATGAAATGCAAGCAAG	0.404
TTAAATGAAATGCAAGCAAG	0.47
CTATTTGAAATGCAAGCAAG	0.351
TTTACTGAAATGCAAGCAAG	0.559
TTCTTTGAAATGCAAGCAAG	0.287
GCTCATGAAATGCAAGCAAG	0.176
CCTTTTGAAATGCAAGCAAG	0.322
TACCATGAAATGCAAGCAAG	0.515
CTCCTTGAAATGCAAGCAAG	1.12
AAGAGTGAAATGCAAGCAAG	0.472
AAGCATGAAATGCAAGCAAG	0.217
GGGCGTGAAATGCAAGCAAG	3.37
CAGGCTGAAATGCAAGCAAG	0.0726
AGGGTTGAAATGCAAGCAAG	1.51
AGCTATGAAATGCAAGCAAG	0.269
GCGCCTGAAATGCAAGCAAG	0.459

Sequence	AGO2 loading enrichment factor
CAGTTTGAAATGCAAGCAAG	0.169
TTAGGTGAAATGCAAGCAAG	0.602
GGGAGTGAAATGCAAGCAAG	4.22
TATCATGAAATGCAAGCAAG	0.58
AGCCCTGAAATGCAAGCAAG	0.381
CTCAATGAAATGCAAGCAAG	0.431
TAATTTGAAATGCAAGCAAG	0.402
ACCAATGAAATGCAAGCAAG	0.357
AACAGTGAAATGCAAGCAAG	0.36
TGGAATGAAATGCAAGCAAG	0.613
TAATATGAAATGCAAGCAAG	0.374
GTACTTGAAATGCAAGCAAG	0.306
CGCCATGAAATGCAAGCAAG	0.448
ATGCATGAAATGCAAGCAAG	0.173
AACTTTGAAATGCAAGCAAG	0.333
AGCTTTGAAATGCAAGCAAG	0.171
AGATCTGAAATGCAAGCAAG	0.39
GATTCTGAAATGCAAGCAAG	0.408
TCTTGTGAAATGCAAGCAAG	0.572
GTGTTTGAAATGCAAGCAAG	0.374
ATCTGTGAAATGCAAGCAAG	0.384
TTCTATGAAATGCAAGCAAG	0.455
CTGTGTGAAATGCAAGCAAG	0.214
CCAGATGAAATGCAAGCAAG	0.424
TGGTTTGAAATGCAAGCAAG	0.264

Sequence	AGO2 loading enrichment factor
AACTGTGAAATGCAAGCAAG	0.266
CGCGGTGAAATGCAAGCAAG	0.414
AAGCTTGAAATGCAAGCAAG	0.0251
TTAAGTGAAATGCAAGCAAG	0.577
GTCAATGAAATGCAAGCAAG	0.38
ATCCGTGAAATGCAAGCAAG	0.614
AAGTATGAAATGCAAGCAAG	0.419
CTGTCTGAAATGCAAGCAAG	0.211
GAAGCTGAAATGCAAGCAAG	0.129
CGCCGTGAAATGCAAGCAAG	0.435
TGTGTTGAAATGCAAGCAAG	0.33
CTGACTGAAATGCAAGCAAG	0.687
GTTGATGAAATGCAAGCAAG	0.47
TAGCTTGAAATGCAAGCAAG	0.0442
AGTTTTGAAATGCAAGCAAG	0.328
TATTATGAAATGCAAGCAAG	0.359
ACTGATGAAATGCAAGCAAG	0.406
CTTGTTGAAATGCAAGCAAG	0.203
TGAGATGAAATGCAAGCAAG	0.435
CAGAGTGAAATGCAAGCAAG	0.413
GTGATTGAAATGCAAGCAAG	0.489
ACTCCTGAAATGCAAGCAAG	0.311
GGTGATGAAATGCAAGCAAG	2.42
CAGCTTGAAATGCAAGCAAG	0.0733
ACCACTGAAATGCAAGCAAG	0.649

Sequence	AGO2 loading enrichment factor
GACGATGAAATGCAAGCAAG	0.83
AGTGCTGAAATGCAAGCAAG	0.137
TCTGTTGAAATGCAAGCAAG	0.486
AGGTGTGAAATGCAAGCAAG	1
GAGTTTGAAATGCAAGCAAG	0.167
ATCCTTGAAATGCAAGCAAG	0.486
GAGCGTGAAATGCAAGCAAG	0.496
GCGGGTGAAATGCAAGCAAG	0.447
GCAATTGAAATGCAAGCAAG	0.224
CTGGGTGAAATGCAAGCAAG	1.6
ATGCTTGAAATGCAAGCAAG	0.896
GCAGGTGAAATGCAAGCAAG	0.183
CCTTGTGAAATGCAAGCAAG	0.0948
CCACATGAAATGCAAGCAAG	0.461
CGTAATGAAATGCAAGCAAG	0.401
TATCTTGAAATGCAAGCAAG	0.0603
ATAGTTGAAATGCAAGCAAG	0.311
CCATGTGAAATGCAAGCAAG	0.341
ATATCTGAAATGCAAGCAAG	0.429
CCATTTGAAATGCAAGCAAG	0.275
TATATTGAAATGCAAGCAAG	0.394
TAATCTGAAATGCAAGCAAG	0.359
TTATTTGAAATGCAAGCAAG	0.624
ACAGCTGAAATGCAAGCAAG	0.189
CCGAATGAAATGCAAGCAAG	0.399

Sequence	AGO2 loading enrichment factor
TTATCTGAAATGCAAGCAAG	0.443
GCCCATGAAATGCAAGCAAG	0.175
CGCAGTGAAATGCAAGCAAG	0.198
GTAATTGAAATGCAAGCAAG	0.452
TCGCGTGAAATGCAAGCAAG	0.362
TCTTATGAAATGCAAGCAAG	0.422
TCCGGTGAAATGCAAGCAAG	0.584
GCGTTTGAAATGCAAGCAAG	0.116
CCACGTGAAATGCAAGCAAG	0.702
ATATGTGAAATGCAAGCAAG	0.35
TCGTATGAAATGCAAGCAAG	0.334
AGCTCTGAAATGCAAGCAAG	0.238
CATTTTGAAATGCAAGCAAG	0.197
AGGTCTGAAATGCAAGCAAG	0.856
CCGATTGAAATGCAAGCAAG	0.322
CCCCGTGAAATGCAAGCAAG	0.364
TACTCTGAAATGCAAGCAAG	0.42
CGAAGTGAAATGCAAGCAAG	0.455
GTAACTGAAATGCAAGCAAG	0.388
TAGTGTGAAATGCAAGCAAG	0.349
GGGAATGAAATGCAAGCAAG	1.9
AGTGATGAAATGCAAGCAAG	0.435
TCCTATGAAATGCAAGCAAG	0.635
AGGATTGAAATGCAAGCAAG	0.523
ATTGCTGAAATGCAAGCAAG	0.253

Sequence	AGO2 loading enrichment factor
TAACGTGAAATGCAAGCAAG	0.343
GCCGATGAAATGCAAGCAAG	0.351
CGAGGTGAAATGCAAGCAAG	1.46
GCCAATGAAATGCAAGCAAG	0.3
CTATGTGAAATGCAAGCAAG	0.159
ACTCATGAAATGCAAGCAAG	0.418
GACGGTGAAATGCAAGCAAG	1.19
GTTCATGAAATGCAAGCAAG	0.402
AGTGTTGAAATGCAAGCAAG	0.35
AATCCTGAAATGCAAGCAAG	0.318
CTTTTTGAAATGCAAGCAAG	0.199
CCAACTGAAATGCAAGCAAG	0.419
AGTCATGAAATGCAAGCAAG	0.434
TATGTTGAAATGCAAGCAAG	0.253
TCACATGAAATGCAAGCAAG	0.373
TAAGGTGAAATGCAAGCAAG	0.592
ACCAGTGAAATGCAAGCAAG	0.386
TGATCTGAAATGCAAGCAAG	0.423
GATTTTGAAATGCAAGCAAG	0.434
TCTGGTGAAATGCAAGCAAG	0.54
CCGCATGAAATGCAAGCAAG	0.269
CGTCTTGAAATGCAAGCAAG	0.167
ATTCCTGAAATGCAAGCAAG	0.378
AAATTTGAAATGCAAGCAAG	0.397
AGCCGTGAAATGCAAGCAAG	0.457

Sequence	AGO2 loading enrichment factor
TCGCTTGAAATGCAAGCAAG	0.128
AGAGATGAAATGCAAGCAAG	0.512
GTCGCTGAAATGCAAGCAAG	0.278
GGGTGTGAAATGCAAGCAAG	2.96
TAGTCTGAAATGCAAGCAAG	0.33
GCCGGTGAAATGCAAGCAAG	0.456
GTATTTGAAATGCAAGCAAG	0.343
TAGATTGAAATGCAAGCAAG	0.325
AGTTCTGAAATGCAAGCAAG	0.453
TGATATGAAATGCAAGCAAG	0.446
ATCGGTGAAATGCAAGCAAG	0.522
TCCTCTGAAATGCAAGCAAG	0.572
CTTAGTGAAATGCAAGCAAG	0.213
TATCGTGAAATGCAAGCAAG	0.518
GGTGGTGAAATGCAAGCAAG	8.41
AGGCGTGAAATGCAAGCAAG	0.92
ACACATGAAATGCAAGCAAG	0.485
AGGTATGAAATGCAAGCAAG	0.504
GCCTATGAAATGCAAGCAAG	0.209
GGGTTTGAAATGCAAGCAAG	0.577
GTTAGTGAAATGCAAGCAAG	0.255
CCCTATGAAATGCAAGCAAG	0.62

From the supplement of paper PMC6451100
